The values below come from ChEMBL document CHEMBL4888484, “Replenishing the malaria drug discovery pipeline: Screening and hit evaluation of the MMV Hit Generation Library 1 (HGL1) against asexual blood stage Plasmodium falciparum ,using a nano luciferase reporter read-out” (2022).

Among all 150,000 compounds or so, about 540 (0.36%) showed an effect of 50% or more. This is one part of the list.

In the assay the test system is Plasmodium falciparum. The assay can be described thus: Primary screen in NF54 nanoGlo assay, in single point, at 2uM, 72h; a lower Z score goes with more inhibition. The class given is functional, Erythrocyte. Particulars: timepoint 72 hour.
For the compound `CC1CCCC(NC(=O)C2N(CCN(C)Cc3ccccc3)C(=O)[C@@H]3C(C(=O)Nc4ccc(Cl)cc4)[C@@H]4C=C[C@]23O4)C1C` (some centres undefined), the % Inhibition (usually the relative decrease from the control value, in per cent) is listed as 8% and the Z score is on record as -1.21.
Taken in the same sequence, the figures for `CCCN1C(=O)CC[C@@H]2CN(C(=O)c3ccc(F)cc3Cl)CC[C@@H]21` were -4% and 0.57.
Taken in the same sequence, the figures for `CC[C@H](C)N(C)C(=O)Nc1ccc(S(N)(=O)=O)cc1` were 3% and -0.52.
Taken in the same sequence, the figures for `CS(=O)(=O)N[C@H]1CC12CCN(C(=O)c1c[nH]c3ccccc13)CC2` were -3% and 0.42.
Consider `CC(C)(O)CN1CCN(C(=O)c2c[nH]c3cc(Cl)ccc23)CC1`, for which the “% Inhibition” value is given as -6% and the Z score is listed as 1.23.
Taken in the same sequence, the figures for `CC1CCC2(CC1)OCC(CNC(=O)C1CCCN1C1CCOCC1)O2` (centres undefined) were -15% and 1.65.
The corresponding values for `Cc1ccc(CNC(=O)Cc2nnc(Nc3ccccc3)s2)cc1` are -15% and 1.8.
The corresponding values for `CCCn1c(NCc2cc(Cl)ccc2O)nc2ccccc21` are 33% and -3.71.
As to `CC[C@@H](CNC(=O)c1csc2c1CCN(Cc1c(C)noc1C)C2)N(C)C`, the “% Inhibition” value is listed as -1% and the Z score is 0.08.
The corresponding values for `Cc1cc(-c2ccccc2)c(C#N)c(=O)n1C(=O)c1ccc(C#N)cc1` are 37% and -1.09.
The corresponding values for `COc1ncccc1CNC(=O)C(=O)Nc1c(C)cnn1[C@H]1CCN(Cc2ccccc2)C1` are -21% and 3.23.
The corresponding values for `Cn1c(=O)c2c(ncn2CC(=O)N2c3ccccc3CCc3ccccc32)n(C)c1=O` are -2% and 0.26.
On to `O=C(NCCc1cccs1)Nc1cnns1`, for which the “% Inhibition” value is listed as -14% and the Z score was 1.42.
The corresponding values for `CC(C)c1cc(CN(C)C(=O)Nc2ccnn2Cc2cccs2)no1` are 1% and -0.18.
The corresponding values for `Cn1nc(C(F)(F)F)c(Cl)c1CN` are -10% and 1.62.
The corresponding values for `CC(NC(=O)C1CCN(S(C)(=O)=O)c2ccccc2O1)c1ccccc1` (centres undefined) are -4% and 0.5.
For `COCc1nc([C@H]2C[C@H](NC(=O)c3cc(C#N)cn3C)C2)cc(=O)[nH]1`, the “% Inhibition” value was determined as 3% and the Z score is -0.56.
The corresponding values for `Cc1ccc(CNC(=O)CCC(=O)Nc2nnc3ccccn23)o1` are 6% and -0.65.
The corresponding values for `CNC(=O)[C@@H](C)CN(C)CCCc1ccc(F)cc1` are 1% and -0.12.
The corresponding values for `O=C(c1cccc(=O)[nH]1)N1CCOC[C@H]1C1CC1` are -7% and 1.31.
For the compound `CO[C@H]1C[C@@H](O)C12CCN(C(=O)c1ccc(C(C)C)cc1)CC2`, the “% Inhibition” value is given as -11% and the Z score is recorded as 1.44.
The corresponding values for `Cc1cc(C[C@H](C)n2cnc3nccnc3c2=O)[nH]n1` are -13% and 2.07.
As to `CCNC(=O)c1ccc(OC(=O)c2cccc3cn[nH]c23)cc1`, the “% Inhibition” value was -12% and the Z score came to 1.87.
Taken in the same sequence, the figures for `CN1CCN(c2cc(-c3ccccc3)nc3ncnn23)C(C)(C)C1=O` were -15% and 2.28.
As to `CCn1c(C2CCN(Cc3ccc(C(=O)OC)cc3)CC2)nn(CCOC)c1=O`, the “% Inhibition” value is -2% and the Z score came out at 0.28.
The corresponding values for `CNC(=O)c1cccnc1N1CC[C@H](CC2CC2)C1` are -10% and 1.4.
Taken in the same sequence, the figures for `COc1ccccc1Nc1nc(-c2ccccc2)c(Oc2ccc(Cl)cc2)s1` were -2% and 0.49.
Taken in the same sequence, the figures for `COc1ccc(-c2cn(Cc3snnc3C)nn2)c(OC)c1C` were 3% and -0.58.
Consider `CCN1C(=O)[C@](C)(C(=O)Nc2ccc(OC)cc2)Oc2cccnc21`, for which the “% Inhibition” value is reported as -12% and the Z score came to 2.08.
The corresponding values for `Cc1cc(C)n(CCC(=O)N(C)Cc2nc(CC(C)C)no2)c(=O)n1` are -11% and 2.1.
Taken in the same sequence, the figures for `Cc1ccc(CN(CCN2CCOCC2)C[C@@H](O)Cc2ccccc2)o1` were -9% and 1.41.
With `CC1CCCCC1NC(=O)C1(C)Cn2c(cc3occc32)C(=O)N1c1ccc(Cl)cc1` (centres undefined), the “% Inhibition” value is reported as -8% and the Z score is on record as 1.59.
Taken in the same sequence, the figures for `CN(C)c1ccc(-c2nncnn2)cc1` were -14% and 1.6.
Taken in the same sequence, the figures for `CCCOc1ccc2ccccc2c1CN1CCN(C)[C@@H]2CS(=O)(=O)C[C@@H]21` were -5% and 0.52.
Taken in the same sequence, the figures for `Cc1ccc(/C=C(\NC(=O)c2ccccc2)C(=O)NC2CCN(Cc3ccccc3)CC2)o1` were 6% and -1.12.
Consider `C=C1CCC(NC(=O)c2ccc3nsnc3c2)CC1`, for which the “% Inhibition” value came out at 2% and the Z score was -0.24.
Taken in the same sequence, the figures for `Cc1ccc(OCC(=O)Nc2cccc(O)c2)c(-n2cnnc2)c1` were -10% and 1.26.
Turning to `C[C@]1(C(=O)O)CCN(C(=O)c2ccc3c(c2)CCC3)C1`, the “% Inhibition” value was 3% and the Z score is on record as -0.58.
Taken in the same sequence, the figures for `O=C(NC1CCN2CCCC2C1)c1ccc(Oc2ccc(Br)cc2)c(F)c1` (centres undefined) were -12% and 1.25.
The corresponding values for `Cc1cc(F)ccc1S(=O)(=O)N1CCC[C@H](Cc2nc(C3CC3)no2)C1` are 8% and -1.04.
Taken in the same sequence, the figures for `COc1cc2c(cc1OC)[C@H](c1ccc(F)cc1)N(C(=O)c1cccc(F)c1)CC2` were -7% and 0.91.
For the compound `Cc1ccc(NC(=O)Cn2cccc2-c2nc(-c3ccc(Cl)cc3)cs2)nc1`, the “% Inhibition” value was -11% and the Z score came to 1.37.
Regarding `CCN1C[C@H](CN(C)C(=O)CCn2cnc3c2c(=O)n(C)c(=O)n3C)Oc2ccccc21`, the “% Inhibition” value is given as -4% and the Z score was 0.54.
Taken in the same sequence, the figures for `C[C@@H](c1cnccn1)N1CCc2ccc(S(C)(=O)=O)cc2CC1` were 3% and -0.55.
`O=C(N[C@H]1CCCc2c1[nH]c1c(Cl)cccc21)c1ccncc1`: the “% Inhibition” value was -6% and the Z score was determined as 0.79.
The corresponding values for `CC(C)CN(CC(=O)N1CCc2sccc2[C@@H]1COc1ccccc1)C(=O)Nc1cccc(Cl)c1` are -6% and 0.54.
The corresponding values for `CCC1(CC)Oc2ccc(NC(=O)N[C@@H]3CNC(=O)C3)cc2O1` are -8% and 1.2.
Taken in the same sequence, the figures for `NC(=O)c1sccc1NC(=O)[C@H]1CCOC2(CCCC2)C1` were -9% and 1.98.
Consider `CCOc1ccc2c(c1)[C@@H](NC(=O)c1cn(-c3ccc(F)cc3)nn1)CCO2`, for which the “% Inhibition” value is -5% and the Z score amounted to 0.77.
On to `O=C(Nc1ccc(CN(C(=O)c2ccc[nH]2)C2CC2)cc1)c1ccc[nH]1`, for which the “% Inhibition” value was -14% and the Z score was found to be 1.56.
`O=S(=O)(NCc1ccc(-c2ccoc2)cc1)c1ccc(-n2cccn2)cc1`: the “% Inhibition” value is recorded as -10% and the Z score is 1.17.
Taken in the same sequence, the figures for `CN(CCS(=O)(=O)N1CCCCC1)S(=O)(=O)c1cccs1` were -5% and 0.65.
